Results published in PubChem BioAssay AID504332 (National Center for Advancing Translational Sciences (NCATS), 2011).
In all, about 350,000 compounds went through this assay and about 31,000 (8.9%) were called active. This list was built around the results that the source calls inconclusive (neither active nor inactive); the mix of calls is not that of the screen. Calls follow the shape of the dose curve; as a rule, active = well fitted inhibition curve with a large enough effect; inconclusive = small, poorly fitted or top-dose-only effect; inactive = no such curve, though single readings can be large or run the other way. Potencies beside an inconclusive call are fits to weak or partial responses and may not hold up.

What follows are compounds tested against Histone-lysine N-methyltransferase EHMT2 (Homo sapiens) (UniProt Q96KQ7) (assay: qHTS Assay for Inhibitors of Histone Lysine Methyltransferase G9a). Conditions: G9a H3K9 monomethylation, AlphaScreen, 2 h; activity, negative = inhibition: at 59 µM (top of the series) unless noted.
In short: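 Compounds were preincubated with 20 nM G9a for 15 min, after which biotinylated H3K9 peptide (500 nM) and SAM (20 uM) started a 2 h room-temperature reaction. Monomethylated product was quantified by antibody-based AlphaScreen chemiluminescence.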
% is scaled to controls: 0 for no effect and ±100 for the full control effect; potency is read from the fitted curve at half-maximal effect; tags tell the direction and shape of the fitted curve.
Also: nearly all actives have a fitted effect of over 75% in size.

Sequence of UniProt Q96KQ7 (Q96KQ7 whole entry, looked up): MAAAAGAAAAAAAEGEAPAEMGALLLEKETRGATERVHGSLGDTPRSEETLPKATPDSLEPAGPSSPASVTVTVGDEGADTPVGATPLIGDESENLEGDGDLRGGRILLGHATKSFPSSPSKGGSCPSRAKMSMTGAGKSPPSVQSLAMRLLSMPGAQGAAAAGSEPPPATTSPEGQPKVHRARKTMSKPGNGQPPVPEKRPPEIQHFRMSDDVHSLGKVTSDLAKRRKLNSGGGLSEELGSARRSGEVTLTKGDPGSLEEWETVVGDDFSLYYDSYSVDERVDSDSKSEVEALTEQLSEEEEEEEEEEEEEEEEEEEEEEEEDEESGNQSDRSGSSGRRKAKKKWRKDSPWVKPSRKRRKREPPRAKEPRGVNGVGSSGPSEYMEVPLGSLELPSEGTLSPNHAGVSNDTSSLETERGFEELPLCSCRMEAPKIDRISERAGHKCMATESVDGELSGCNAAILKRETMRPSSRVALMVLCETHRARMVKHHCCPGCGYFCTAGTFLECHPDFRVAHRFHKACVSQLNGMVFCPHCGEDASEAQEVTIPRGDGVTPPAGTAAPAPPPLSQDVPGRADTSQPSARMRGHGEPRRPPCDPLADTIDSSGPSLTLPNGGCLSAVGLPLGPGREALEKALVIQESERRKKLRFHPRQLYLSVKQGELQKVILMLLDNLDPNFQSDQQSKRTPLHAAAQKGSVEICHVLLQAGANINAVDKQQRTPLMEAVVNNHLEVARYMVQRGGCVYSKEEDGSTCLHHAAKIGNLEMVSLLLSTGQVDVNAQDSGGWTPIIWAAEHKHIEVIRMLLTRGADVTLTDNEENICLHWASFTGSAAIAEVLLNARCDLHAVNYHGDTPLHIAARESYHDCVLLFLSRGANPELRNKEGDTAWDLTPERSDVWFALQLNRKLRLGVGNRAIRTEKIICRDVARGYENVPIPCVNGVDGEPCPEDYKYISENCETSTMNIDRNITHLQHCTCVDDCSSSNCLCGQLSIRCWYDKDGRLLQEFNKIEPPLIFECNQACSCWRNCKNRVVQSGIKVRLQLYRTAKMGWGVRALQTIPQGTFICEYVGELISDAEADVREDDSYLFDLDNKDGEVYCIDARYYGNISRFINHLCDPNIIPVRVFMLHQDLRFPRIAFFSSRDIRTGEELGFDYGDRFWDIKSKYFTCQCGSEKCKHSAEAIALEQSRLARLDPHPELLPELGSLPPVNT

Row | Compound | activity, negative = inhibition | Potency
1 | CCCSc1nc2c(cnn2-c2ccccc2)c(=O)[nH]1 | inconclusive: -55.1% [inhibitor] [at 102 µM] | –
2 | CC(C)Oc1ccc(S(=O)(=O)N2CCCCC2)cc1NC(=O)C1CSC2(C)CCC(=O)N12 (centres undefined) | – | inconclusive: 56.2 µM [inhibitor, partial curve, poor fit]
3 | O=C(NCc1ccccc1)C(c1ccco1)N(C(=O)c1ccccn1)c1ccccc1 (centres undefined) | – | inconclusive: 89.1 µM [inhibitor, single point]
4 | O=C(/C=C/c1ccco1)OCC(=O)c1cccc([N+](=O)[O-])c1 | – | inconclusive: 39.8 µM [inhibitor, single point]
5 | C=CCn1c(SCC(=O)Nc2nc3ccccc3s2)nnc1-c1ccccc1O | – | inconclusive: 100 µM [inhibitor, single point]
6 | COc1ccc2c(c1)c(N1CCCC1=O)c(C(=O)Nc1cc(C)c(Cl)cc1OC)n2C | inactive: -36.5% | –
7 | CCN(c1ccccc1)S(=O)(=O)c1nnc(NC(=O)C2CCCCC2)s1 | – | inconclusive: 3.16 µM [inhibitor, partial curve, poor fit]
8 | CCn1c(=O)c2sccc2n2c(CCC(=O)Nc3ccc(F)cc3)nnc12 | inactive: 2.7% | –
9 | Cc1ccc(C)c(N2CCN(C(=O)c3ccc(Cn4c(=O)[nH]c5ccccc5c4=O)cc3)CC2)c1 | – | inconclusive: 22.4 µM [inhibitor, single point]
10 | Cc1nnc(SCC(=O)N2CCN(Cc3ccccc3)CC2)s1 | – | inconclusive: 35.5 µM [inhibitor, partial curve, poor fit]
11 | CC1CCN(CCOc2ccc(C(=O)c3ccccc3)cc2)CC1 | – | active: 7.08 µM
12 | O=C(CCSCCc1ccccn1)Nc1ccc(Cl)cc1 | inactive: 5.01% | –
13 | Cc1ccc(/C=C/C(=O)NCc2ccc3c(c2)OCO3)o1 | – | active: 10 µM
14 | Cc1ccccc1-c1noc(CCC(=O)NCC2CCCO2)n1 (centres undefined) | – | active: 12.6 µM
15 | O=C(Nc1ccon1)c1cc2ccccc2oc1=O | – | inconclusive: 11.2 µM [inhibitor, full curve, poor fit]
16 | Cn1c(NC(=O)c2ccco2)c(-c2ccccc2)c(=O)c2ccccc21 | – | inconclusive: 89.1 µM [inhibitor, single point]
17 | OCCC1CN(Cc2cccc(-c3ccco3)c2)CCN1Cc1ccsc1 (centres undefined) | – | inconclusive: 79.4 µM [inhibitor, single point]
18 | Cc1ccc(C)c(Cn2c(=O)n(-c3ccccc3)c(=O)c3c4c(sc32)CCCC4)c1 | inactive: -30.4% | –
19 | CCOC(=O)Cc1ccc(NC(=O)NC(C)c2c(-n3cccc3)sc(C)c2C)cc1 (centres undefined) | – | inconclusive: 25.1 µM [inhibitor, partial curve, poor fit]
20 | CC(=O)Nc1c(O)n(C)c2ccccc12 | – | inconclusive: 5.62 µM [inhibitor, partial curve, poor fit]
21 | COc1ccc(OC)c(NC(=O)CSc2nnc(CNC(=O)COc3ccc(Cl)cc3)o2)c1 | inconclusive: -85.3% [inhibitor] [at 12.7 µM] | –
22 | O=S(=O)(Nc1ccc(N2CCOCC2)cc1)c1ccccc1 | – | inconclusive: 1.78 µM [inhibitor, partial curve, poor fit]
23 | CCOC(=O)C1=C(C)n2c(s/c(=C3\C(=O)Nc4ccccc43)c2=O)=NC1c1ccc(OC)cc1 (centres undefined) | – | inconclusive: 8.91 µM [inhibitor, partial curve, poor fit]

Row | Compound | activity, negative = inhibition | Potency
24 | COc1cccc(C2CC(c3ccccc3)=NN2S(=O)(=O)c2ccc(C)cc2)c1OC (centres undefined) | – | inconclusive: 89.1 µM [inhibitor, single point]
25 | O=C(O)CN1C(=O)c2cccc3c(Br)ccc1c23 | – | inconclusive: 39.8 µM [inhibitor, single point]
26 | O=[N+]([O-])c1ccc(NNC(=S)Nc2ccc(F)cc2)cc1 | – | inconclusive: 10 µM [inhibitor, partial curve, poor fit]
27 | O=C1C(C=NCCCN2CCCC2=O)=C(O)c2ccccc21 | – | inconclusive: 39.8 µM [inhibitor, single point]
28 | Cc1[nH]c2ccc(C(=O)N3CCN(Cc4ccccc4)CC3)cc2c1C | – | inconclusive: 89.1 µM [inhibitor, single point]
29 | CC(=O)Nc1ccc2nc(CN3CCN(CC=C(C)C)C(CCO)C3)ccc2c1 (centres undefined) | – | inconclusive: 44.7 µM [inhibitor, partial curve]
30 | CC1CCCN(CCOCCSc2ccccc2)C1 (centres undefined) | – | active: 10 µM
31 | CCOc1ccccc1NS(=O)(=O)c1cccc2nsnc12 | – | inconclusive: 6.31 µM [inhibitor, single point]
32 | CC1=C(C(=O)Nc2ccc(C)cc2C)C(c2cccc(Cl)c2)n2nc(C(=O)OC(C)C)nc2N1 (centres undefined) | – | inconclusive: 89.1 µM [inhibitor, single point]
33 | CCOc1ccc(NCc2nnc(SCc3ccccc3Cl)n2-c2ccccc2)cc1 | – | inconclusive: 25.1 µM [inhibitor, single point]
34 | CC(NC(=O)Cc1ccc(S(=O)(=O)N2CCOCC2)s1)c1ccc(Cl)c(Cl)c1 (centres undefined) | inactive: -5.19% | –
35 | O=C(Nc1cc(F)cc(F)c1)c1ccc(NCCCN2CCCCCC2)c([N+](=O)[O-])c1 | – | inconclusive: 56.2 µM [inhibitor, partial curve, poor fit]
36 | Cc1ccc(OCC(=O)Nc2ccc(N3CCN(C(=O)c4ccco4)CC3)cc2)c(C)c1 | – | inconclusive: 70.8 µM [inhibitor, single point]
37 | Cc1ccc(C(=O)N/N=C/c2c(O)ccc3ccccc23)cn1 | – | inconclusive: 0.316 µM [inhibitor, full curve]
38 | Fc1ccc(N2CCN(C(=S)NCc3ccco3)CC2)cc1 | – | inconclusive: 44.7 µM [inhibitor, partial curve]
39 | Nc1ccc(Oc2ncccn2)cc1 | – | inconclusive: 2 µM [inhibitor, full curve, poor fit]
40 | Cc1ccc(S(=O)(=O)N2CN(Cc3ccco3)c3nc4ccccc4nc32)cc1C | – | active: 31.6 µM
41 | O=C(c1ccc2c(c1)N(Cc1cccc(Cl)c1)C(=O)c1ccccc1S2=O)N1CCC(Cc2ccccc2)CC1 (centres undefined) | – | inconclusive: 39.8 µM [inhibitor, single point]
42 | O=C(CCc1nc2ccccc2c(=O)[nH]1)OCC(=O)c1cccc(Cl)c1 | – | inconclusive: 31.6 µM [inhibitor, single point]
43 | O=c1cccccc1NN=C1CCCCCC1 | – | inconclusive: 79.4 µM [inhibitor, partial curve, poor fit]
44 | Cc1cc(OCC(=O)OCC(=O)NCc2ccco2)ccc1Cl | inactive: -33.1% [at 102 µM] | –
45 | CN(C)C=NC(=O)c1cc(C(=O)c2ccccc2Cl)c[nH]1 | inconclusive: -53% [inhibitor] | –
46 | Clc1ccc(CSc2nnc(-c3cccnc3)n2Cc2ccco2)c(Cl)c1 | – | active: 35.5 µM

Row | Compound | activity, negative = inhibition | Potency
47 | O=C(CN(Cc1ccccc1)C(=O)CSc1nnc(COc2ccccc2)o1)NC1CCCC1 | – | active: 10 µM
48 | O=C(Nc1ccc(S(=O)(=O)N2CCCCC2)cc1)C1CCCN(C(=O)c2ccc(Cl)cc2)C1 (centres undefined) | – | inconclusive: 89.1 µM [inhibitor, partial curve, poor fit]
49 | CC(=O)N1CCC2(CC1)C(C#N)=C(N)OC1=C2C(=O)CC(C)(C)C1 | inactive: 2.48% | –
50 | C/C(=N/N=C(/N)SCc1ccccc1)C(C)(C)C | – | active: 10 µM
51 | CN1CCN(c2ncnc3ccc(-c4ccc(C(=O)N(C)C)cc4)cc23)CC1 | inactive: 2.09% [at 0.501 µM] | –
52 | O=S(=O)(/N=C(/NS(=O)(=O)c1ccccc1)c1ccccc1)c1ccccc1 | – | inconclusive: 79.4 µM [inhibitor, partial curve, poor fit]
53 | O=C(C1CCCN(Cc2cc(Br)ccc2O)C1)N1CCCCC1 (centres undefined) | – | active: 25.1 µM
54 | CC(C)Cn1c(N)c(C(=O)COC(=O)c2cc(C(F)(F)F)nc3c(C(F)(F)F)cccc23)c(=O)n(C)c1=O | – | inconclusive: 79.4 µM [inhibitor, single point]
55 | Nc1nsc2ccccc12 | – | active: 39.8 µM
56 | CCC(CC)C(=O)Nc1cccc(C(=O)NCc2ccco2)c1 | inconclusive: -82.8% [inhibitor] | –
57 | Cc1cccc(NC(=O)CSC2=Nc3ccccc3C3=NC(CCC(=O)NCc4ccco4)C(=O)N23)c1 (centres undefined) | – | inconclusive: 7.08 µM [inhibitor, single point]
58 | Cc1ccn2c(NC3CCCC3)c(-c3ccncc3)nc2c1 | inactive: -43.9% [at 102 µM] | –
59 | CCCCn1c(=O)nc2n(-c3ccc(Cl)cc3)c3ccccc3cc-2c1=O | – | active: 39.8 µM
60 | CN(C)S(=O)(=O)N1CCC(n2c(C(F)(F)F)nc3cccnc32)CC1 | inactive: 1.15% | –
61 | N#Cc1cc(-c2ccccc2)nnc1Oc1ccccc1Cl | – | inconclusive: 1.58 µM [inhibitor, partial curve, poor fit]
62 | Cc1nn(-c2ccccc2)c(C)c1NC(=O)Cc1cccs1 | – | inconclusive: 79.4 µM [inhibitor, single point]
63 | CC[n+]1c(/C=C/Nc2ccccc2)oc2ccc(OC)cc21 | – | inconclusive: 50.1 µM [inhibitor, partial curve]
64 | COc1ccc(Cl)cc1N1CCN(CCNC(=O)Nc2ccccc2C)CC1 | – | inconclusive: 31.6 µM [inhibitor, partial curve, poor fit]
65 | C/C(CC(=O)NC1CCCC1)=N\NC(=O)c1ccc([N+](=O)[O-])c(Cl)c1 | inactive: 5.24% | –
66 | CC(C)(C)NCc1cc(Cl)ccc1OCc1cccs1 | – | inconclusive: 28.2 µM [inhibitor, single point]
67 | CN(C)C(=O)CSc1nc2ccccc2n1Cc1ccccc1 | inactive: 12.5% [at 102 µM] | –
68 | COc1ccc2c(C)c(CC(=O)NCc3ccccc3Cl)c(=O)oc2c1OC | inactive: -32.2% | –
69 | COC(=O)C1=C(CSCc2ccco2)NC(=O)NC1c1cc(C)ccc1C (centres undefined) | inconclusive: -65.2% [inhibitor] | –
